Results reported in US12286632B2, “Rationally-designed synthetic peptide shuttle agents for delivering polypeptide cargos from an extracellular space to the cytosol and/or nucleus of a target eukaryotic cell, uses thereof, methods and kits relating to same” (Feldan Bio Inc., priority 2016, dated 2025).
Not every detail of the peptide structures is certain; ends, links or a residue may be inferred. Some entries repeat one wording, which the source may state once for all of them. Ends that are not written are not given here. Peptide text beside a SMILES is read from it.

Assays:
PPIB gene = assay: T7E1 DNA cleavage assay after CRISPR/Cas9-NLS delivery, HeLa cells; format: cell-based, Human; details: shuttle 10 μM; Cas9-NLS 25 nM; HeLa cells 16 h, medium without serum
Text: The T7 endonuclease I (T7E1) can be used to detect on-target CRISPR/Cas genome editing events in cultured cells. As an overview, genomic DNA from target cells is amplified by PCR. The PCR products are then denatured and reannealed to allow heteroduplex formation between wild-type DNA and CRISPR/Cas-mutated DNA. T7E1, which recognizes and cleaves mismatched DNA, is used to digest the heteroduplexes. The resulting cleaved and full-length PCR products are visualized by gel electrophoresis.
The T7E1 assay was performed with the Edit-R™ Synthetic crRNA Positive Controls (Dharmacon #U-007000-05) and the T7 Endonuclease I (NEB, Cat #M0302S). After the delivery of the CRISPR/Cas complex, cells were lysed in 100 μL of Phusion™ High-Fidelity DNA polymerase (NEB #M0530S) laboratory with additives. The cells were incubated for 15-30 minutes at 56° C., followed by deactivation for 5 minutes at 96° C. The plate was briefly centrifuged to collect the liquid at bottom of the wells. 50-μL PCR samples were set up for each sample to be analyzed. The PCR samples were heated to 95° C. for 10 minutes and then slowly (>15 minutes) cooled to room temperature. PCR product (-5 μL) was then separated on an agarose gel (2%) to confirm amplification. 15 μL of each reaction was incubated with T7E1 nuclease for 25 minutes at 37° C. […]

THP-1 cells = assay: GFP-NLS protein transduction assay (flow cytometry: Pos cells %, viability %, relative fluorescence intensity; microscopy); details: for Mean % cells with GFP signal (±St. Dev.; n = 3): THP-1
HeLa cells [1] = assay: as above; details: Protocol B, GFP-NLS 5 μM; for Mean % cells with GFP signal (±St. Dev.; n = 3): HeLa
HeLa cells [2] = assay: Transduction score (highest % transduction efficiency x % viability / 1000), GFP or GFP-NLS cargo; format: cell-based, Human; details: GFP or GFP-NLS as cargo, scale 0 to 10
HeLa cells [3] = assay: Plasmid DNA (pEGFP-C1) transfection by peptides (% cells with GFP signal, cell viability); details: DNA transfection in HeLa cells using peptides

Molecule	delivery of functional CRISPR/Cas9 complex, cleavage of genomic PPIB (in words) (PPIB gene)	GFP-NLS intracellular delivery after repeated daily treatments (in words) (THP-1 cells; 0.5 or 0.8 μM shuttle, 150 min each day, in the presence of serum)	Mean % cells with GFP signal (±St. Dev.; n = 3) (THP-1 cells; Protocol C, 1 μM shuttle, 5 μM GFP-NLS, incubation 15 sec) [%]	Mean % cells with GFP signal (±St. Dev.; n = 3) (THP-1 cells; Protocol C, 1 μM shuttle, 5 μM GFP-NLS, incubation 30 sec) [%]	Mean % cells with GFP signal (±St. Dev.; n = 3) (THP-1 cells; Protocol C, 1 μM shuttle, 5 μM GFP-NLS, incubation 60 sec) [%]	Mean % cells with GFP signal (±St. Dev.; n = 3) (THP-1 cells; Protocol C, 1 μM shuttle, 5 μM GFP-NLS, incubation 120 sec) [%]	Mean % cells with GFP signal (±St. Dev.; n = 3) (THP-1 cells; serum, daily 150 min, 0.8 μM shuttle, 1 μM GFP-NLS, 1 day exposure) [%]	Mean % cells with GFP signal (±St. Dev.; n = 3) (THP-1 cells; serum, daily 150 min, 0.8 μM shuttle, 1 μM GFP-NLS, 3 days exposure) [%]	Mean % cells with GFP signal (±St. Dev.; n = 3) (HeLa cells [1]; Table 10.1, shuttle 50 μM, 10 seconds) [%]	Mean % cells with GFP signal (±St. Dev.; n = 3) (HeLa cells [1]; Table 10.2, shuttle 10 μM, incubation 1 min.) [%]	Mean % cells with GFP signal (±St. Dev.; n = 3) (HeLa cells [1]; Table 10.2, shuttle 10 μM, incubation 2 min.) [%]	Mean % cells with GFP signal (±St. Dev.; n = 3) (HeLa cells [1]; Table 10.2, shuttle 10 μM, incubation 5 min.) [%]	transduction score (HeLa cells [2])	Mean % cells with GFP signal (±St. Dev.; n = 3) (HeLa cells [1]; Table 10.4, peptide 50 μM, 10 seconds) [%]	GFP-NLS transduction (flow cytometry, in words) (HeLa cells [1]; peptide 50 μM, 10 seconds)	Mean % cells with GFP signal (±St. Dev.; n = 3) (HeLa cells [3]) [%]
CC(C)C[C@H](NC(=O)[C@H](CC(C)C)NC(=O)[C@H](CCCCN)NC(=O)[C@H](CCCCN)NC(=O)[C@H](CC(C)C)NC(=O)[C@H](CC(C)C)NC(=O)[C@H](CCCCN)NC(=O)[C@H](CCCCN)NC(=O)[C@H](CC(C)C)NC(=O)[C@H](CC(C)C)NC(=O)[C@H](CS)NC(=O)[C@H](Cc1c[nH]cn1)NC(=O)[C@H](Cc1c[nH]cn1)NC(=O)[C@H](Cc1c[nH]cn1)NC(=O)[C@H](Cc1c[nH]cn1)NC(=O)[C@H](Cc1c[nH]cn1)NC(=O)[C@@H](N)Cc1c[nH]cn1)C(=O)N[C@@H](CCCCN)C(=O)N[C@@H](CCCCN)C(=O)N[C@@H](CS)C(=O)N[C@@H](Cc1ccc(O)cc1)C(=O)N[C@@H](C)C(=O)N[C@@H](CCCNC(=N)N)C(=O)N[C@@H](C)C(=O)N[C@@H](C)C(=O)N[C@@H](C)C(=O)N[C@@H](CCCNC(=N)N)C(=O)N[C@@H](CCC(N)=O)C(=O)N[C@@H](C)C(=O)N[C@@H](CCCNC(=N)N)C(=O)N[C@@H](C)C(=O)O [His-C(LLKK)3C-PTD4] (H-HHHHHHCLLKKLLKKLLKKCYARAAARQARA-OH)	successfully deliver a functional CRISPR/Cas9 complex to the nucleus of HeLa cells	result in intracellular delivery of GFP-NLS	38.4 ± 0.3	42.3 ± 4.2	64.5 ± 1.0	78.7 ± 0.3	1.8 ± 0.2	6.6 ± 0.8	76 ± 3.8	51.1 ± 3.5	77.8 ± 4.3	86.4 ± 4.0	–	–	–	–
WEAKLAKALAKALAKHLAKALAKALKACEA [KALA, reference compound]	–	–	–	–	–	–	–	–	–	–	–	–	0.12	1.4 ± 0.13	not able to successfully transduce GFP-NLS	0.79 ± 0.06
